Molecules are shown by their SMILES. Structures can show the parent of a compound that is named as a salt. ± gives the standard deviation of the averaged measurements. Whole data set: some 1,900 compounds, median “normalised cell viability (NPI; 0 = phenylarsine oxide control, 1 = DMSO control)” near 1, cut for the lowest 2% near 0.039. This is one part of the list.

The test relates to NCI-H1944. Kind of test: normalised cell viability (NPI; 0 = phenylarsine oxide control, 1 = DMSO control) (fraction of DMSO control); NCI-H1944 is a non-small cell lung cancer line; higher = more viable cells (less compound toxicity). Particulars: 6 days.
The mark [1] stands for this setting: glucocorticoid arm: hydrocortisone 2.75 uM co-treatment, compound 1 µM.
[2] abbreviates: glucocorticoid arm: hydrocortisone 2.75 uM co-treatment, compound 5 µM.
Setting [3] is: glucocorticoid arm: hydrocortisone 2.75 uM pre-treated 2 days and continued, compound 1 µM.
The mark [4] stands for this setting: glucocorticoid arm: hydrocortisone 2.75 uM pre-treated 2 days and continued, compound 5 µM.
Setting [5] is: glucocorticoid arm: vehicle, compound 1 µM.
[6] abbreviates: glucocorticoid arm: vehicle, compound 5 µM.
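Also: CTB read-out in 384-well plates, mean of triplicate wells, normalised per plate against 1 µM phenylarsine oxide and 0.1% DMSO, compounds added 24 h after seeding.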

As for `O=C1CN(/N=C/c2ccc(-c3ccc([N+](=O)[O-])cc3)o2)C(=O)N1` [Dantrolene sodium], the normalised cell viability runs as follows: under setting [1], 0.993 ± 0.013; under setting [2], 0.979 ± 0.019; under setting [3], 0.998 ± 0.011; under setting [4], 0.969 ± 0.0017; under setting [5], 0.97 ± 0.001; under setting [6], 0.9637 ± 0.0045.
As to `Oc1ccc(Cn2cc[nH]c2=S)cc1` [1-(4-Hydroxybenzyl)imidazole-2-thiol], the normalised cell viability reads like this: under setting [1], 0.98 ± 0.018; under setting [2], 0.972 ± 0.016; under setting [3], 0.982 ± 0.013; under setting [4], 0.968 ± 0.021; under setting [5], 0.976 ± 0.0036; under setting [6], 0.9733 ± 0.0031.
Regarding `NCCCCCNCC12CC3CC(CC(C3)C1)C2` [IEM 1754 dihydrobroMide], the normalised cell viability reads like this: under setting [1], 1.03 ± 0.021; under setting [2], 1.05 ± 0.025; under setting [3], 1.03 ± 0.01; under setting [4], 1.03 ± 0.015; under setting [5], 1.003 ± 0.0058; under setting [6], 1.013 ± 0.0058.
`O=C(O)c1ccc2c(c1)nc(Nc1cccc(Cl)c1)c1ccncc12`: the normalised cell viability reads like this: under setting [1], 0.993 ± 0.022; under setting [2], 0.965 ± 0.018; under setting [3], 1.02 ± 0.01; under setting [4], 0.953 ± 0.013; under setting [5], 1 ± 0.016; under setting [6], 0.994 ± 0.02.
Regarding `COc1ccccc1N1CCN(CCN(C(=O)c2ccc(F)cc2)c2ccccn2)CC1` [p-MPPF dihydrochloride], the normalised cell viability was found to be 0.9777 ± 0.0038 under setting [1]; 0.935 ± 0.001 under setting [2]; 0.987 ± 0.01 under setting [3]; 1.01 ± 0.071 under setting [4]; 0.9773 ± 0.004 under setting [5]; 0.9837 ± 0.0057 under setting [6].
`c1ccc(-c2ccccn2)nc1` [2,2'-Bipyridyl]: the normalised cell viability turned out to be 1.002 ± 0.0076 under setting [1]; 1.01 ± 0.01 under setting [2]; 1 ± 0.011 under setting [3]; 1.02 ± 0.018 under setting [4]; 0.993 ± 0.0066 under setting [5]; 1.002 ± 0.0072 under setting [6].
On to `O=C1NCCc2[nH]c(-c3ccncc3)cc21`, for which the normalised cell viability is, setting by setting: under setting [1], 1.02 ± 0.015; under setting [2], 0.0894 ± 0.0076; under setting [3], 0.9933 ± 0.0072; under setting [4], 0.145 ± 0.006; under setting [5], 0.916 ± 0.016; under setting [6], 0.0151 ± 0.0021.
For `C[C@]12C[C@H](O)[C@H]3[C@@H](CCC4=CC(=O)CC[C@@]43C)[C@@H]1CC[C@@H]2C(=O)CO` [Corticosterone], the normalised cell viability runs as follows: under setting [1], 1.02 ± 0.011; under setting [2], 1.02 ± 0.03; under setting [3], 1.01 ± 0.01; under setting [4], 1.01; under setting [5], 0.98 ± 0.015; under setting [6], 0.949 ± 0.022.
In the case of `COC(=O)C1=C(C)NC(C)=C([N+](=O)[O-])C1c1ccccc1C(F)(F)F` (racemic), the normalised cell viability under setting [1] was 0.99 ± 0.0072; the normalised cell viability under setting [2] was determined as 0.942 ± 0.02; the normalised cell viability under setting [3] is 0.9753 ± 0.0031; the normalised cell viability under setting [4] stood at 0.9355 ± 0.00071; the normalised cell viability under setting [5] came to 0.962 ± 0.01; the normalised cell viability under setting [6] is 0.947 ± 0.011.
For `O=C(/C=C/c1ccc(O)c(O)c1)c1ccc(O)cc1O` [Butein], the normalised cell viability is, setting by setting: under setting [1], 0.726 ± 0.034; under setting [2], 0.431 ± 0.021; under setting [3], 0.727 ± 0.033; under setting [4], 0.594 ± 0.11; under setting [5], 0.825 ± 0.035; under setting [6], 0.231 ± 0.051.
As for `Cc1cc(C)c(NC(=O)C[C@H](CC(=O)O)c2cccc3ccccc23)c(C(=O)N2CCC3(CCCC3)CC2)c1`, the normalised cell viability is, setting by setting: under setting [1], 1.01 ± 0.01; under setting [2], 1.06 ± 0.021; under setting [3], 1.02; under setting [4], 1.09 ± 0.093; under setting [5], 0.9983 ± 0.0029; under setting [6], 1.01 ± 0.012.
For `O=C(CCCCCCC(=O)Nc1ccccc1)NO`, the normalised cell viability amounted to 0.959 ± 0.016 under setting [1]; 0.569 ± 0.04 under setting [2]; 0.978 ± 0.013 under setting [3]; 0.912 ± 0.015 under setting [4]; 0.969 ± 0.011 under setting [5]; 0.075 ± 0.0018 under setting [6].
On to `O=C(CCCCCCC(=O)Nc1ccccc1)NO` [Vorinostat (SAHA, MK0683)], for which the normalised cell viability under setting [1] is 0.94 ± 0.017; the normalised cell viability under setting [2] turned out to be 0.585 ± 0.025; the normalised cell viability under setting [3] stood at 0.959 ± 0.0017; the normalised cell viability under setting [4] amounted to 0.955 ± 0.048; the normalised cell viability under setting [5] was 1.003 ± 0.0058; the normalised cell viability under setting [6] is 0.0617 ± 0.0036.
Turning to `O=C(CCCCCCC(=O)Nc1ccccc1)NO` [Vorinostat; SAHA], the normalised cell viability stood at 0.928 ± 0.018 under setting [1]; 1.04 ± 0.04 under setting [2]; 0.95 ± 0.0036 under setting [3]; 1.02 under setting [4]; 0.995 ± 0.015 under setting [5]; 0.9983 ± 0.0029 under setting [6].
In the case of `COc1ccc2c(c1)c(C1=C(c3c[nH]c4ccccc34)C(=O)NC1=O)cn2CCCN(C)C`, the normalised cell viability worked out at 0.912 ± 0.028 under setting [1]; 1.02 ± 0.01 under setting [2]; 0.928 ± 0.012 under setting [3]; 0.977 ± 0.0092 under setting [4]; 1.006 ± 0.0063 under setting [5]; 1.03 under setting [6].
Turning to `Nc1c2c(nc3ccccc13)CCCC2` [9-Amino-1,2,3,4-tetrahydroacridine hydrochloride], the normalised cell viability under setting [1] is 0.9893 ± 0.0023; the normalised cell viability under setting [2] turned out to be 0.991 ± 0.004; the normalised cell viability under setting [3] amounted to 0.794 ± 0.33; the normalised cell viability under setting [4] turned out to be 0.992 ± 0.012; the normalised cell viability under setting [5] came to 0.986 ± 0.013; the normalised cell viability under setting [6] turned out to be 0.9903 ± 0.0035.
Take `O=c1sn(-c2cccc3ccccc23)c(=O)n1Cc1ccccc1` [Tideglusib]: the normalised cell viability reads like this: under setting [1], 1.01 ± 0.016; under setting [2], 1.02 ± 0.029; under setting [3], 1.02 ± 0.01; under setting [4], 1.03; under setting [5], 0.99933 ± 0.00058; under setting [6], 1.007 ± 0.0058.
On to `COc1cc2/c(=N/c3ccc(Br)cc3F)nc[nH]c2cc1OCC1CCN(C)CC1` [Vandetanib], for which the normalised cell viability is, setting by setting: under setting [1], 0.894 ± 0.018; under setting [2], 0.721 ± 0.021; under setting [3], 0.902 ± 0.031; under setting [4], 0.825 ± 0.015; under setting [5], 0.915 ± 0.016; under setting [6], 0.752 ± 0.014.
As to `COc1cc2/c(=N/c3ccc(Br)cc3F)nc[nH]c2cc1OCC1CCN(C)CC1` [Vandetanib (Zactima)], the normalised cell viability came out at 0.84 ± 0.022 under setting [1]; 0.653 ± 0.023 under setting [2]; 0.8763 ± 0.0087 under setting [3]; 0.722 ± 0.022 under setting [4]; 0.901 ± 0.0096 under setting [5]; 0.726 ± 0.029 under setting [6].
As to `CCN(CC)C(=S)SSC(=S)N(CC)CC` [Tetraethylthiuram disulfide], the normalised cell viability reads like this: under setting [1], 1.017 ± 0.0058; under setting [2], 1.027 ± 0.0058; under setting [3], 1.05 ± 0.038; under setting [4], 1.02 ± 0.017; under setting [5], 0.708 ± 0.07; under setting [6], 0.943 ± 0.13.
`C=C[C@@]1(C)CC(=O)[C@]2(O)[C@@]3(C)[C@@H](O)CCC(C)(C)[C@@H]3[C@H](O)[C@H](OC(C)=O)[C@@]2(C)O1` [Forskolin]: the normalised cell viability under setting [1] worked out at 1.01, the normalised cell viability under setting [3] stood at 1.01 and the normalised cell viability under setting [4] was 1.04.
With `O=C(O)C(Cc1c[nH]c2ccccc12)N1C(=O)c2ccccc2C1=O` (configuration not stated), the normalised cell viability is, setting by setting: under setting [1], 0.9963 ± 0.0032; under setting [2], 1.01 ± 0.022; under setting [3], 0.986 ± 0.019; under setting [4], 0.973 ± 0.058; under setting [5], 1.006 ± 0.0063; under setting [6], 1.013 ± 0.0058.
As to `Cc1nc(N=Nc2cc([N+](=O)[O-])ccc2Cl)c(COP(=O)(O)O)c(C=O)c1O` [MRS 2211 sodium salt hydrate], the normalised cell viability by setting is: under setting [1], 1.003 ± 0.0061; under setting [2], 1.023 ± 0.0058; under setting [3], 0.9933 ± 0.0099; under setting [4], 0.995 ± 0.036; under setting [5], 1.01 ± 0.013; under setting [6], 1.006 ± 0.0075.
Turning to `Cn1c(=O)n(-c2ccc(C(C)(C)C#N)cc2)c2c3cc(-c4cnc5ccccc5c4)ccc3ncc21`, the normalised cell viability under setting [1] was 0.421 ± 0.017; the normalised cell viability under setting [2] turned out to be 0.496 ± 0.04; the normalised cell viability under setting [3] stood at 0.629 ± 0.0076; the normalised cell viability under setting [4] is 0.633 ± 0.071; the normalised cell viability under setting [5] was determined as 0.255 ± 0.013; the normalised cell viability under setting [6] is 0.408 ± 0.047.
Regarding `Cc1c(F)ccc(C(=O)Nc2cc([N+](=O)[O-])ccc2N2CCN(C)CC2)c1Cl`, the normalised cell viability reads like this: under setting [1], 1.03 ± 0.011; under setting [2], 0.987 ± 0.02; under setting [3], 1.027 ± 0.0058; under setting [4], 1 ± 0.013; under setting [5], 0.9957 ± 0.0075; under setting [6], 0.9963 ± 0.0047.

These data come from the supplement of paper PMC8285479.
